# Source: the supplement of paper PMC8728848
# This is one part of the list.
# B1: LecB LY19 (Pseudomonas aeruginosa) (protein)
# chain: MATQGVFTLPANTQFGVTAFANSAGTQTVNVQVNNETVATFTGQSTNNGIIGSKVLNSGGGGKVQILVSVNGRSSDLVSAQVILANELNFALVGSEDSTDNDYNDAVVVINWPLG
# Assays:
# Experiment in all cases: glycan array binding signal (z-score within array); higher = stronger binding
# Conditions in all cases: glycan notation: IUPAC condensed, linker removed
# [1] = target: Neu5Ac(a2-3)GalNAc
# Procedure, shortened: (§1)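 Negative Z-scores can be read as non-binding. The Z-score is calculated within each array and then averaged across arrays of one protein sequence at different concentrations or buffers and across linkers. Arrays, 3228 in all, were curated from the Consortium for Functional Glycomics database and kept only where the protein sequence was available.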
# [2] = target: Neu5Ac(a2-3)GalNAc(b1-4)GlcNAc
# Procedure, shortened: as §1
# [3] = target: Neu5Ac(a2-3)[GalNAc(b1-4)]Gal(b1-4)Glc
# Procedure, shortened: as §1
# [4] = target: Neu5Ac(a2-3)[GalNAc(b1-4)]Gal(b1-4)GlcNAc
# Procedure, shortened: as §1
# [5] = target: Neu5Ac(a2-3)[GalNAc(b1-4)]Gal(b1-4)GlcNAc(b1-3)GalNAc
# Procedure, shortened: as §1
# [6] = target: Neu5Ac(a2-3)[Neu5Ac(a2-6)]GalNAc
# Procedure, shortened: as §1
# [7] = target: Neu5Ac(a2-6)Gal
# Procedure, shortened: as §1
# [8] = target: Neu5Ac(a2-6)Gal(b1-3)GlcNAc(b1-3)[Gal(b1-4)GlcNAc(b1-6)]Gal(b1-4)Glc
# Procedure, shortened: as §1
# [9] = target: Neu5Ac(a2-6)Gal(b1-4)Glc
# Procedure, shortened: as §1
# [10] = target: Neu5Ac(a2-6)Gal(b1-4)GlcNAc
# Procedure, shortened: as §1
# [11] = target: Neu5Ac(a2-6)Gal(b1-4)GlcNAc(b1-2)Man
# Procedure, shortened: as §1
# [12] = target: Neu5Ac(a2-6)Gal(b1-4)GlcNAc(b1-2)Man(a1-3)Man(b1-4)GlcNAc(b1-4)GlcNAc
# Procedure, shortened: as §1
# [13] = target: Neu5Ac(a2-6)Gal(b1-4)GlcNAc(b1-2)Man(a1-3)[Gal(b1-4)GlcNAc(b1-2)Man(a1-6)]Man(b1-4)GlcNAc(b1-4)GlcNAc
# Procedure, shortened: as §1
# [14] = target: Neu5Ac(a2-6)Gal(b1-4)GlcNAc(b1-2)Man(a1-3)[GlcNAc(b1-4)][Neu5Ac(a2-6)Gal(b1-4)GlcNAc(b1-2)Man(a1-6)]Man(b1-4)GlcNAc(b1-4)GlcNAc
# Procedure, shortened: as §1
# [15] = target: Neu5Ac(a2-6)Gal(b1-4)GlcNAc(b1-2)Man(a1-3)[Man(a1-6)]Man(b1-4)GlcNAc(b1-4)GlcNAc
# Procedure, shortened: as §1
# [16] = target: Neu5Ac(a2-6)Gal(b1-4)GlcNAc(b1-2)Man(a1-3)[Neu5Ac(a2-3)Gal(b1-4)GlcNAc(b1-2)Man(a1-6)]Man(b1-4)GlcNAc(b1-4)GlcNAc
# Procedure, shortened: as §1
# [17] = target: Neu5Ac(a2-6)Gal(b1-4)GlcNAc(b1-2)Man(a1-3)[Neu5Ac(a2-6)Gal(b1-4)GlcNAc(b1-2)Man(a1-6)]Man(b1-4)GlcNAc(b1-4)GlcNAc
# Procedure, shortened: as §1
# [18] = target: Neu5Ac(a2-6)Gal(b1-4)GlcNAc(b1-2)Man(a1-3)[Neu5Ac(a2-6)Gal(b1-4)GlcNAc(b1-2)Man(a1-6)]Man(b1-4)GlcNAc(b1-4)[Fuc(a1-6)]GlcNAc
# Procedure, shortened: as §1
# [19] = target: Neu5Ac(a2-6)Gal(b1-4)GlcNAc(b1-2)Man(a1-6)Man(b1-4)GlcNAc(b1-4)GlcNAc
# Procedure, shortened: as §1
# [20] = target: Neu5Ac(a2-6)Gal(b1-4)GlcNAc(b1-2)Man(a1-6)[Gal(b1-4)GlcNAc(b1-2)Man(a1-3)]Man(b1-4)GlcNAc(b1-4)GlcNAc
# Procedure, shortened: as §1
# [21] = target: Neu5Ac(a2-6)Gal(b1-4)GlcNAc(b1-2)Man(a1-6)[GlcNAc(b1-2)Man(a1-3)]Man(b1-4)GlcNAc(b1-4)GlcNAc
# Procedure, shortened: as §1
# [22] = target: Neu5Ac(a2-6)Gal(b1-4)GlcNAc(b1-2)Man(a1-6)[Man(a1-3)]Man(b1-4)GlcNAc(b1-4)GlcNAc
# Procedure, shortened: as §1
# [23] = target: Neu5Ac(a2-6)Gal(b1-4)GlcNAc(b1-2)[Neu5Ac(a2-6)Gal(b1-4)GlcNAc(b1-4)]Man(a1-3)[GlcNAc(b1-4)][Neu5Ac(a2-6)Gal(b1-4)GlcNAc(b1-2)[Neu5Ac(a2-6)Gal(b1-4)GlcNAc(b1-6)]Man(a1-6)]Man(b1-4)GlcNAc(b1-4)GlcNAc
# Procedure, shortened: as §1
# [24] = target: Neu5Ac(a2-6)Gal(b1-4)GlcNAc(b1-2)[Neu5Ac(a2-6)Gal(b1-4)GlcNAc(b1-4)]Man(a1-3)[GlcNAc(b1-4)][Neu5Ac(a2-6)Gal(b1-4)GlcNAc(b1-4)Man(a1-6)]Man(b1-4)GlcNAc(b1-4)GlcNAc
# Procedure, shortened: as §1
# [25] = target: Neu5Ac(a2-6)Gal(b1-4)GlcNAc(b1-2)[Neu5Ac(a2-6)Gal(b1-4)GlcNAc(b1-6)]Man(a1-6)[Neu5Ac(a2-6)Gal(b1-4)GlcNAc(b1-2)Man(a1-3)][GlcNAc(b1-4)]Man(b1-4)GlcNAc(b1-4)GlcNAc
# Procedure, shortened: as §1
# [26] = target: Neu5Ac(a2-6)Gal(b1-4)GlcNAc(b1-3)Gal(b1-3)GlcNAc
# Procedure, shortened: as §1
# [27] = target: Neu5Ac(a2-6)Gal(b1-4)GlcNAc(b1-3)Gal(b1-4)GlcNAc
# Procedure, shortened: as §1
# [28] = target: Neu5Ac(a2-6)Gal(b1-4)GlcNAc(b1-3)Gal(b1-4)GlcNAc(b1-2)Man(a1-3)[Neu5Ac(a2-6)Gal(b1-4)GlcNAc(b1-3)Gal(b1-4)GlcNAc(b1-2)Man(a1-6)]GalNAc
# Procedure, shortened: as §1
# [29] = target: Neu5Ac(a2-6)Gal(b1-4)GlcNAc(b1-3)Gal(b1-4)GlcNAc(b1-3)Gal(b1-4)GlcNAc
# Procedure, shortened: as §1
# [30] = target: Neu5Ac(a2-6)Gal(b1-4)GlcNAc(b1-3)Gal(b1-4)GlcNAc(b1-3)Gal(b1-4)GlcNAc(b1-2)Man(a1-3)[Neu5Ac(a2-6)Gal(b1-4)GlcNAc(b1-3)Gal(b1-4)GlcNAc(b1-3)Gal(b1-4)GlcNAc(b1-2)Man(a1-6)]GalNAc
# Procedure, shortened: as §1
# [31] = target: Neu5Ac(a2-6)Gal(b1-4)GlcNAc(b1-3)Gal(b1-4)GlcNAc(b1-3)GalNAc
# Procedure, shortened: as §1
# [32] = target: Neu5Ac(a2-6)Gal(b1-4)GlcNAc(b1-3)Gal(b1-4)GlcNAc(b1-3)[Neu5Ac(a2-6)Gal(b1-4)GlcNAc(b1-3)Gal(b1-4)GlcNAc(b1-6)]GalNAc
# Procedure, shortened: as §1
# [33] = target: Neu5Ac(a2-6)Gal(b1-4)GlcNAc(b1-3)Gal(b1-4)GlcNAc(b1-6)[Gal(b1-3)]GalNAc
# Procedure, shortened: as §1
# [34] = target: Neu5Ac(a2-6)Gal(b1-4)GlcNAc(b1-3)Gal(b1-4)[Fuc(a1-3)]GlcNAc(b1-3)Gal(b1-4)[Fuc(a1-3)]GlcNAc
# Procedure, shortened: as §1
# [35] = target: Neu5Ac(a2-6)Gal(b1-4)GlcNAc(b1-3)GalNAc
# Procedure, shortened: as §1
# [36] = target: Neu5Ac(a2-6)Gal(b1-4)GlcNAc(b1-3)[Neu5Ac(a2-6)Gal(b1-4)GlcNAc(b1-6)]GalNAc
# Procedure, shortened: as §1
# [37] = target: Neu5Ac(a2-6)Gal(b1-4)GlcNAc(b1-6)GalNAc
# Procedure, shortened: as §1
# [38] = target: Neu5Ac(a2-6)Gal(b1-4)GlcNAc(b1-6)[Gal(b1-3)GlcNAc(b1-3)]Gal(b1-4)Glc
# Procedure, shortened: as §1
binder,measurement,setting,value
B1,glycan array binding signal (z-score),[1],-0.428
same,glycan array binding signal (z-score),[2],-0.554
same,glycan array binding signal (z-score),[3],-0.524
same,glycan array binding signal (z-score),[4],-0.553
same,glycan array binding signal (z-score),[5],-0.553
same,glycan array binding signal (z-score),[6],-0.333
same,glycan array binding signal (z-score),[7],-0.552
same,glycan array binding signal (z-score),[8],-0.508
same,glycan array binding signal (z-score),[9],-0.53
same,glycan array binding signal (z-score),[10],-0.527
same,glycan array binding signal (z-score),[11],-0.537
same,glycan array binding signal (z-score),[12],-0.516
same,glycan array binding signal (z-score),[13],-0.316
same,glycan array binding signal (z-score),[14],-0.543
same,glycan array binding signal (z-score),[15],-0.071
same,glycan array binding signal (z-score),[16],-0.539
same,glycan array binding signal (z-score),[17],-0.504
same,glycan array binding signal (z-score),[18],0.475
same,glycan array binding signal (z-score),[19],-0.549
same,glycan array binding signal (z-score),[20],-0.558
same,glycan array binding signal (z-score),[21],-0.551
same,glycan array binding signal (z-score),[22],0.735
same,glycan array binding signal (z-score),[23],-0.554
same,glycan array binding signal (z-score),[24],-0.546
same,glycan array binding signal (z-score),[25],-0.544
same,glycan array binding signal (z-score),[26],-0.553
same,glycan array binding signal (z-score),[27],-0.556
same,glycan array binding signal (z-score),[28],-0.473
same,glycan array binding signal (z-score),[29],-0.556
same,glycan array binding signal (z-score),[30],-0.493
same,glycan array binding signal (z-score),[31],-0.55
same,glycan array binding signal (z-score),[32],-0.53
same,glycan array binding signal (z-score),[33],-0.549
same,glycan array binding signal (z-score),[34],2.08
same,glycan array binding signal (z-score),[35],-0.501
same,glycan array binding signal (z-score),[36],-0.543
same,glycan array binding signal (z-score),[37],-0.521
same,glycan array binding signal (z-score),[38],-0.413
